Measurements as given in PubChem BioAssay AID624417 (National Center for Advancing Translational Sciences (NCATS), 2012).
“And” between values parts separate entries of the source, which are not always exact repeats. Equal values may be shown once. Hit rate of the full screen: of about 410,000 compounds, about 6,400 (1.6%) were called active. The inconclusive results got no clear call from the source; some entries with a clear call stand among them for comparison. Calls follow the shape of the dose curve; as a rule, active = well fitted inhibition curve with a large enough effect; inconclusive = small, poorly fitted or top-dose-only effect; inactive = no such curve, though single readings can be large or run the other way. Where the call is inconclusive, the potency comes from a doubtful curve fit.
% is scaled to controls: 0 for no effect and ±100 for the full control effect; potency is read from the fitted curve at half-maximal effect; tags tell the direction and shape of the fitted curve.
Also: nearly all actives have a fitted effect of over 55% in size.

These compounds were tested against Glucagon-like peptide 1 receptor (Homo sapiens) (UniProt P43220) (assay: qHTS of GLP-1 Receptor Inverse Agonists (Inhibition Mode)). Settings: HEK293 GLP-1R CRE-luciferase, luminescence, 24 h, GLP-1R form is constitutively active; activity change, negative = inhibition: at 38.3 µM (top of the series) unless noted.
Chain of UniProt P43220 (P43220 whole entry, looked up): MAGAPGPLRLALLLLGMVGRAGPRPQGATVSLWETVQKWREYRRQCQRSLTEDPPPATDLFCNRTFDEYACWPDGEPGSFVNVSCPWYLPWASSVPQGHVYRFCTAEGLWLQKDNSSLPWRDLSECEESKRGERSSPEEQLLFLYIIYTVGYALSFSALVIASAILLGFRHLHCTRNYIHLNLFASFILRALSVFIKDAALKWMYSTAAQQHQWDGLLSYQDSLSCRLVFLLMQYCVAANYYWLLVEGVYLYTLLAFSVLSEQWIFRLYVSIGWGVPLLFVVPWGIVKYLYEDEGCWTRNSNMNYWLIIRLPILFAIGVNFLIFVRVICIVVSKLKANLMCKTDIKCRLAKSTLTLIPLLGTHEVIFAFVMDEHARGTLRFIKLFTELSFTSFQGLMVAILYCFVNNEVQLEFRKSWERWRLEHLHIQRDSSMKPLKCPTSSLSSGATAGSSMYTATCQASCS
How it was run: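 Stable HEK293 clone (constitutively active GLP-1R + cAMP-response luciferase); 200 cells/uL plated, 12 h pre-culture, compound 24 hr, 37 deg C/5% CO2; detection reagent 12 min RT; luminescence.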
For `O=C(Nc1ccc(C(=O)Oc2ccccc2)c(O)c1)c1ccccc1`, the Potency was inconclusive: 28.2 µM [inhibitor, single point].
With `CN1OC[C@@H]2CN(Cc3cc(Cl)cc(Cl)c3)[C@H](c3cccc(-c4ccc(C#N)cc4)c3)C[C@@H]21` the Potency was “inactive”.
In the case of `CSc1ccc(/C=N/NC(=O)c2cc(O)cc(O)c2)cc1`, the Potency is reported as inconclusive: 12.6 µM [inhibitor, partial curve, poor fit].
In the case of `COCCCNC(=O)C1CCN(Cc2cc3ccccc3n2Cc2cccc(Cl)c2)CC1`, the Potency is reported as inconclusive: 14.1 µM [inhibitor, partial curve, poor fit].
In the case of `Cc1ccc(S(=O)(=O)N2[C@@H](c3ccc(F)cc3)C(C(=O)O)=CC[C@H]2c2ccc(C(C)C)cc2)cc1`, the Potency is reported as inconclusive: 31.6 µM [inhibitor, partial curve, poor fit].
With `Cc1nc(N2CCCCC2)c2c(C)c(C(=O)Nc3ccc4c(c3)OCCO4)sc2n1` the Potency was active: 5.62 µM.
For `O=C(Nc1cc(S(=O)(=O)Nc2ccc(Cl)cc2)ccc1N1CCCCC1)c1ccc(F)cc1`, the Potency was inconclusive: 10 µM [inhibitor, partial curve].
For `Nc1nc(N2CCN(c3ccccn3)CC2)nc2ccccc12`, the Potency was “inactive”.
In the case of `OC(c1nc2ccc(F)cc2[nH]1)C(O)c1nc2ccc(F)cc2[nH]1` (stereo not given), the activity change, negative = inhibition is reported as inconclusive: -33.6% [inhibitor].
`Cc1cc(C)n2nc(CNC(=O)c3cccc(N(C)C)c3)nc2n1` was tested, and the Potency was “inactive”.
In the case of `Cc1ccc(S(=O)(=O)Nc2ccc(Br)cc2/C=N/n2cnnc2)cc1`, the Potency is reported as inconclusive: 7.08 µM [inhibitor, partial curve, poor fit].
`CCOC(=O)c1cccc(NC(=O)c2ccc(N(C)C)cc2)c1` was tested, and the Potency was inconclusive: 14.1 µM [inhibitor, single point].
In the case of `CN1CCN(c2ccc(NC(=O)c3cc4ccccc4o3)cc2)CC1`, the Potency is reported as inconclusive: 11.2 µM [inhibitor, single point].
In the case of `Cc1c(C(=O)N(C)Cc2ccccc2)sc2nc(-c3ccc(F)cc3)cn12`, the Potency is reported as inconclusive: 11.2 µM [inhibitor, partial curve, poor fit].
`CCOC(=O)c1sc2ccccc2c1OC(=O)c1ccccc1OC` was tested, and the Potency was inconclusive: 20 µM [inhibitor, partial curve, poor fit].
`C[C@H](NC(=O)c1nc[nH]c1C(=O)N[C@@H](C)c1ccccc1)C(=O)OC(C)(C)C` was tested, and the Potency was inconclusive: 28.2 µM [inhibitor, single point].
For `CC(C)N(Cc1cnn(C)c1)Cc1nc(-c2ccc(Cl)cc2)no1`, the Potency was inconclusive: 31.6 µM [inhibitor, single point].
With `CN1CCC(CC(C(=O)N2CCCC2)(c2ccccc2)c2ccccc2)C1` (stereo not given) the Potency was inconclusive: 11.2 µM [inhibitor, partial curve, poor fit].
With `COc1cc(C)c(/C=C(\C#N)C(=O)Nc2cccc(C)c2)cc1C(C)C` the Potency was inconclusive: 1.58 µM [inhibitor, full curve, poor fit].
For `CCCc1nc2c(c(=O)c3ccccc3n2C)c(=O)n1C1CCCCCC1`, the Potency was inconclusive: 3.16 µM [inhibitor, partial curve, poor fit].
`COc1ccccc1-c1sc2cc3c(cc2c1-c1ccc(OCCN2CCOCC2)cc1)OCO3` was tested, and the Potency was inconclusive: 28.2 µM [inhibitor, single point].
`COc1ccc(N2CCN(C(=O)c3ccc4c(c3)CCN4S(=O)(=O)c3ccccc3)CC2)cc1` was tested, and the Potency was inconclusive: 28.2 µM [inhibitor, single point] and inconclusive: 7.08 µM [inhibitor, partial curve, poor fit].
`O=C(c1ccc(Cl)nc1)N1CCC(Cc2ccccc2)CC1` was tested, and the Potency was inconclusive: 10 µM [inhibitor, partial curve, poor fit].
`N#CC1=C(N)Oc2cc(O)ccc2C1c1cccnc1` (stereo not given) was tested, and the Potency was “inactive”.
`Cc1cccc(N2CCN(C(=O)CCc3nc4ccccc4[nH]3)CC2C)c1` (stereo not given) was tested, and the Potency was inconclusive: 28.2 µM [inhibitor, single point].
With `CCOc1ccccc1NC1=CC(=O)CC(c2ccccc2)C1` (stereo not given) the Potency was inconclusive: 11.2 µM [inhibitor, single point].
In the case of `CCC(Oc1ccccc1)C(=O)Nc1ccccc1OC` (stereo not given), the Potency is reported as inconclusive: 10 µM [inhibitor, partial curve].
For `CCc1ccccc1OCC(=O)Nc1ccc(S(N)(=O)=O)cc1`, the Potency was “inactive”.
For `Cc1nc(Nc2nc3ccccc3o2)nc(C)c1C`, the Potency was inconclusive: 1.12 µM [inhibitor, full curve].
With `Cc1ccc(C)c(CSc2cn(CC(=O)N3CCCC3)c3ccccc23)c1` the Potency was inconclusive: 11.2 µM [inhibitor, partial curve, poor fit].
`Oc1ccccc1/C=N/NC(=S)NC1CC2CC1C1C=CCC21` (stereo not given) was tested, and the Potency was inconclusive: 7.94 µM [inhibitor, partial curve, poor fit].
For `c1cc2c(c(CC3CO3)c1CC1CO1)OCCOCCOCCOCCO2` (stereo not given), the Potency was inconclusive: 10 µM [inhibitor, single point].
In the case of `CSc1ccc(N2CCN(CCCNC(=O)Nc3ccccc3F)CC2)cc1`, the Potency is reported as “inactive”.
`CC/C(C)=N/NC(=O)c1[nH]c2ccc(C)cc2c1-c1ccccc1` was tested, and the Potency was inconclusive: 15.8 µM [inhibitor, single point].
`O=C(CSc1nnc(-c2csc3c2CCCC3)o1)Nc1ccccc1` was tested, and the Potency was inconclusive: 7.08 µM [inhibitor, partial curve, poor fit].
In the case of `COc1cc(/C=N/n2c(-c3cc(C)[nH]n3)n[nH]c2=S)cc(OC)c1OC`, the Potency is reported as “inactive”.
In the case of `COc1cc(C(=S)N2CCOCC2)cc(Br)c1OS(=O)(=O)c1ccccc1`, the Potency is reported as inconclusive: 28.2 µM [inhibitor, single point].
`CN(C)S(=O)(=O)c1cccc(NC(=O)c2cccc(S(=O)(=O)N3CCCCCC3)c2)c1` was tested, and the Potency was inconclusive: 8.91 µM [inhibitor, partial curve, poor fit].
For `Cc1ncc(CO)c(/C=N/NC(=S)Nc2ccc(Cl)c(Cl)c2)c1O`, the Potency was inconclusive: 10 µM [inhibitor, single point].
`CC(C)C[C@H](NC(=O)c1nc[nH]c1C(=O)NC(c1ccccc1)c1ccccc1)C(=O)OC(C)(C)C` was tested, and the Potency was inconclusive: 6.31 µM [inhibitor, partial curve, poor fit].
